Assay results taken from patent US20220389066A1, “POLYPEPTIDES” (Affibody AB, priority 2019, published 2022).

Legend:
HMGB1(red) [1] = target: T1, HMGB1(red) (Rattus norvegicus, UniProt P63159); assay: In vitro cell migration assay, mouse 3T3 fibroblasts in modified Boyden chambers; format: cell-based; settings: 1 nM or 0.2 nM HMGB1(red), 3 h
T1 construct: purchased HMGBiotech Srl, Milano, Italy
T1 sequence (P63159 2-215): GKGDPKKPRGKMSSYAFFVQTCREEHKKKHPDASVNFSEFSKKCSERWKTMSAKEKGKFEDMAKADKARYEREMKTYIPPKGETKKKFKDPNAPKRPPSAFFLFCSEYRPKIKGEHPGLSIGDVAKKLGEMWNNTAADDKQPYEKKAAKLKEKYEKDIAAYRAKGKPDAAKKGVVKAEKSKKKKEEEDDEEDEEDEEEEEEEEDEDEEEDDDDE
Procedure: In vitro cell migration assay: Mouse 3T3 fibroblast cells were used to assess the ability of His6-tagged Z variants to inhibit migration of cells in response to HMGB1 in modified Boyden Chambers (Neuroprobe Inc.). Mouse 3T3 fibroblasts were grown in Dulbecco's Modified Eagle Medium (DMEM, Gibco) with 10% fetal bovine serum (FBS, Gibco), 1% L-glutamine and antibiotics (Lonza). Prior to use, cells were centrifuged and the pellet was resuspended in DMEM (without FBS) without further washing. Polycarbonate filters (Neuroprobe Inc.; #PFA8) with 8 μm pores were coated with human fibronectin (Roche). Serum-free DMEM (negative control), DMEM containing 1 nM HMGB1(red) (positive control), and DMEM containing 1 nM HMGB1(red) plus Z variants ZH 01 (SEQ ID NO:1) and ZH 31 (SEQ ID NO:31) at a concentration of 10 or 100 ng/ml, were placed in the lower wells. A control polypeptide, Z04726 (SEQ ID NO:54), binding an irrelevant target, was used as negative control. boxA(red) (SEQ ID NO:51), a known competitor of HMGB1, was used at 1 nM concentration as positive control for inhibition of HMGB1 induced cell migration. Fibronectin-coated filters were placed so as to separate the lower and the upper wells, and 50000 3T3 cells were placed in the upper wells. The chambers were kept at 37° C. in a 5% CO2, humidified incubator for 3 h. The cells were then fixed with 100% ethanol (Sigma) and stained 20 minutes with Giemsa Stain (Sigma). The cells on the lower side of the filter were counted with a Leica DM LS2 microscope at 400× magnification.
ZH 30 was tested in a migration assay by performing an extended titration to allow IC50 calculations with 0.2 nM HMGB1(red) and lower concentrations of Z variants (0.1 ng/ml, 0.3 ng/ml, 1 ng/ml). A control polypeptide, ZZA4014 (SEQ ID NO:49), binding an irrelevant target and cloned and produced as described in Example 4, was used as negative control in this set up.
In vitro cell migration assay: The migration assay was performed essentially as described for monomeric Z variants in Example 3. One monomeric Z-ABD polypeptide, ZA3812 (SEQ ID NO:35); five heterodimeric polypeptides, ZZA4010 (SEQ ID NO:38), ZZA4011 (SEQ ID NO:39), ZZA4012 (SEQ ID NO:40), ZZA4013 (SEQ ID NO:41) and ZAZ4015 (SEQ ID NO:42); and three homodimeric polypeptides, ZZA4053 (SEQ ID NO:43), ZZA4054 (SEQ ID NO:44) and AZ4057 (SEQ ID NO:45), were tested in a migration assay by performing an extended titration, to allow IC50 calculations with 0.2 nM HMGB1 and reducing doses of polypeptides (0.1 nM, 0.3 nM, 1 nM). ZZA4014 (SEQ ID NO:49), binding an irrelevant target, was included as a negative control.

HMGB1(red) [2] = target: T2, HMGB1(red) (Rattus norvegicus, UniProt P63159); assay: Biacore binding analysis of mutated Z variants, immobilized HMGB1(red); settings: His6-tagged Z variant as analyte; HBS-EP + 2 mM DTT; 1:1 model
T2 construct: purchased HMGBiotech Srl, Milano, Italy
T2 sequence (P63159 1-215): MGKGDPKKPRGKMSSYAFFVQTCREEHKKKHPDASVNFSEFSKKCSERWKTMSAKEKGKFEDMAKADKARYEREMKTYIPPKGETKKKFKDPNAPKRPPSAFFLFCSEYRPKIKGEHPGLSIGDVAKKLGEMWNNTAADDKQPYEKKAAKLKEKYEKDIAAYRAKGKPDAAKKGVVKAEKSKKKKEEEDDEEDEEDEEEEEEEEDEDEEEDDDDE
Procedure: Binding analysis of mutated Z variants: A binding analysis was performed using a Biacore 2000 instrument. All alanine mutated Z variants, together with the original Z variant ZH 01, were analyzed against GST-boxA(red), HMGB1(red), boxA(disulfide) and HMGB1(disulfide). The immobilizations and Biacore analyses were performed essentially as described in Example 3. However, in these analyses, the different targets were directly coupled to separate flow cells of different CM5 chip surfaces and a flow rate of 30 μl/min was used. The ligand immobilization levels on the surfaces were 1410 RU for GST-boxA(red), 1380 RU for HMGB1(red), 540 RU for boxA(disulfide) and 2900 RU for HMGB1(disulfide). The analytes, i.e. the Z variants, were each diluted in HBS-EP buffer (or in HBS-EP+2 mM DTT for use in analysis with reduced targets GST-boxA(red) and HMGB1(red)), within a concentration range of 50 to 1350 nM and injected for 3 min, followed by dissociation in running buffer for 35 min. No regeneration buffer was used in the analyses. Instead, the dissociation time was enough for all binders to dissociate from the chip surfaces. HBS-EP was used as running buffer for targets boxA(disulfide) and HMGB1(disulfide) while HBS-EP+2 mM DTT was used for reduced targets GST-boxA(red) and HMGB1(red). The dissociation constants were calculated as in Example 3.

Question: With “ZH01: HMGB1 A-box binding Z variant, 58 amino acid residues, from primary phage display selection (VDAKYAKEDWDAFWEIIWLPNLTDAQQRAFIYKLEDDPSQSSELLSEAKKLNDSQAPK; Engineered HMGB1 binding polypeptide)” as the substance, how does the “inhibition of HMGB1 induced cell migration” value (HMGB1(red) [1]) read?
Answer: Its value is “inhibit HMGB1 induced cell migration”.

Question: And the Kd (HMGB1(red) [2])?
Answer: The Kd was 12 nM.
